# Measurements: the supplement of paper PMC12217912
# The other results are listed elsewhere or left out. Sequences were assembled here from the parent chain. Inactive controls read about 0.05.
# B1: TEV protease; numbered along this chain (parent)
# chain: MGESLFKGPRDYNPISSSICHLTNESDGHTTSLYGIGFGPFIITNKHLFRRNNGTLVVQSLHGVFKVKDTTTLQQHLVDGRDMIIIRMPKDFPPFPQKLKFREPQREERICLVTTNFQTKSMSSMVSDTSCTFPSGDGIFWKHWIQTKDGQCGSPLVSTRDGFIVGIHSASNFTNTNNYFTSVPKNFMELLTNQEAQQWVSGWRLNADSVLWGGHKVFMVKPEEPFQPVKEATQL
# Variants of: B1
# Assay: raw area under fraction-flipped curve 0-4 h after induction (AUC4h, not background-subtracted), DNA-recorder readout of cleavage of the substrate (dimensionless); higher = more cleavage of the substrate by the protease variant
# Settings: temperature: 34 °C; time window: 0-4 h after rhamnose induction
# Experimental: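 In vivo DNA recorder in E. coli TOP10(DE3) ΔrhaA at 34 °C. Each TEVp single-site mutant (parent TEVp 0) is paired with a single-site variant of the 7-mer TEVs (canonical ENLYFQ|S). The substrate sits between flexible linkers in a Bxb1-sfGFP-TEVs-SsrA fusion, so cleavage stabilises Bxb1 and speeds flipping of a recombination array, read by NGS. The value is the raw area under the fraction-flipped curve over 0-4 h after rhamnose induction (AUC4h), with ≥20 reads per time point. It is not background-subtracted; inactive controls average about 0.047.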
# 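Further: Bxb1 expression induced with 0.2% (w/v) L-rhamnose at OD600 near 0.5, cultures sampled hourly, flipped fraction per protease–substrate barcode pair counted by paired-end Illumina sequencing.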
variant,measurement,value
MGESLFKGPRDYNPISSSICHLTNESDGHTTSLYGIGFGPFIITNKHLFRRNNGTLVVQSLHGVFKVKDTTTLQQHLVDGRDSIIIRMPKDFPPFPQKLKFREPQREERICLVTTNFQTKSMSSMVSDTSCTFPSGDGIFWKHWIQTKDGQCGSPLVSTRDGFIVGIHSASNFTNTNNYFTSVPKNFMELLTNQEAQQWVSGWRLNADSVLWGGHKVFMVKPEEPFQPVKEATQL [M83S],area with substrate ENLAFQS,0.0528
same,area with substrate ENLDFQS,0.0639
same,area with substrate ENLFFQS,0.0542
same,area with substrate ENLGFQS,0.0675
same,area with substrate ENLHFQS,0.0659
same,area with substrate ENLIFQS,0.0593
same,area with substrate ENLKFQS,0.0658
same,area with substrate ENLMFQS,0.039
same,area with substrate ENLNFQS,0.0953
same,area with substrate ENLPFQS,0.0547
same,area with substrate ENLRFQS,0.0723
same,area with substrate ENLSFQS,0.0785
same,area with substrate ENLWFQS,0.0477
MGESLFKGPRDYNPISSSICHLTNESDGHTTSLYGIGFGPFIITNKHLFRRNNGTLVVQSLHGVFKVKDTTTLQQHLVDGRDYIIIRMPKDFPPFPQKLKFREPQREERICLVTTNFQTKSMSSMVSDTSCTFPSGDGIFWKHWIQTKDGQCGSPLVSTRDGFIVGIHSASNFTNTNNYFTSVPKNFMELLTNQEAQQWVSGWRLNADSVLWGGHKVFMVKPEEPFQPVKEATQL [M83Y],area with substrate ENLAFQS,0.0497
same,area with substrate ENLDFQS,0.046
same,area with substrate ENLFFQS,0.0651
same,area with substrate ENLHFQS,0.0619
same,area with substrate ENLIFQS,0.0376
same,area with substrate ENLKFQS,0.0547
same,area with substrate ENLNFQS,0.0625
same,area with substrate ENLPFQS,0.0659
same,area with substrate ENLQFQS,0.0535
same,area with substrate ENLSFQS,0.0547
MGESLFKGPRDYNPISSSICHLTNESDGHTTSLYGIGFGPFIITNKHLFRRNNGTLVVQSLHGVFKVKDTTTLQQHLVDGRDMIIYRMPKDFPPFPQKLKFREPQREERICLVTTNFQTKSMSSMVSDTSCTFPSGDGIFWKHWIQTKDGQCGSPLVSTRDGFIVGIHSASNFTNTNNYFTSVPKNFMELLTNQEAQQWVSGWRLNADSVLWGGHKVFMVKPEEPFQPVKEATQL [I86Y],area with substrate ENLAFQS,0.045
same,area with substrate ENLIFQS,0.0602
same,area with substrate ENLKFQS,0.0578
same,area with substrate ENLWFQS,0.0484
MGESLFKGPRDYNPISSSICHLTNESDGHTTSLYGIGFGPFIITNKHLFRRNNGTLVVQSLHGVFKVKDTTTLQQHLVDGRDMIIIRKPKDFPPFPQKLKFREPQREERICLVTTNFQTKSMSSMVSDTSCTFPSGDGIFWKHWIQTKDGQCGSPLVSTRDGFIVGIHSASNFTNTNNYFTSVPKNFMELLTNQEAQQWVSGWRLNADSVLWGGHKVFMVKPEEPFQPVKEATQL [M88K],area with substrate ENLAFQS,0.0422
same,area with substrate ENLCFQS,0.0629
same,area with substrate ENLGFQS,0.0627
same,area with substrate ENLHFQS,0.0592
same,area with substrate ENLKFQS,0.0649
same,area with substrate ENLRFQS,0.0632
same,area with substrate ENLSFQS,0.0672
MGESLFKGPRDYNPISSSICHLTNESDGHTTSLYGIGFGPFIITNKHLFRRNNGTLVVQSLHGVFKVKDTTTLQQHLVDGRDMIIIRMPCDFPPFPQKLKFREPQREERICLVTTNFQTKSMSSMVSDTSCTFPSGDGIFWKHWIQTKDGQCGSPLVSTRDGFIVGIHSASNFTNTNNYFTSVPKNFMELLTNQEAQQWVSGWRLNADSVLWGGHKVFMVKPEEPFQPVKEATQL [K90C],area with substrate ENLAFQS,0.0449
same,area with substrate ENLCFQS,0.086
same,area with substrate ENLDFQS,0.0698
same,area with substrate ENLEFQS,0.0682
same,area with substrate ENLFFQS,0.0834
same,area with substrate ENLGFQS,0.0757
same,area with substrate ENLHFQS,0.0736
same,area with substrate ENLIFQS,0.0754
same,area with substrate ENLKFQS,0.0811
same,area with substrate ENLMFQS,0.0643
same,area with substrate ENLNFQS,0.0646
same,area with substrate ENLPFQS,0.0763
same,area with substrate ENLQFQS,0.0697
same,area with substrate ENLSFQS,0.072
same,area with substrate ENLVFQS,0.0774
MGESLFKGPRDYNPISSSICHLTNESDGHTTSLYGIGFGPFIITNKHLFRRNNGTLVVQSLHGVFKVKDTTTLQQHLVDGRDMIIIRMPQDFPPFPQKLKFREPQREERICLVTTNFQTKSMSSMVSDTSCTFPSGDGIFWKHWIQTKDGQCGSPLVSTRDGFIVGIHSASNFTNTNNYFTSVPKNFMELLTNQEAQQWVSGWRLNADSVLWGGHKVFMVKPEEPFQPVKEATQL [K90Q],area with substrate ENLAFQS,0.0714
same,area with substrate ENLDFQS,0.0705
same,area with substrate ENLEFQS,0.0639
same,area with substrate ENLFFQS,0.0878
same,area with substrate ENLHFQS,0.0834
same,area with substrate ENLKFQS,0.0801
same,area with substrate ENLNFQS,0.0577
same,area with substrate ENLPFQS,0.0752
same,area with substrate ENLQFQS,0.0833
same,area with substrate ENLSFQS,0.0793
same,area with substrate ENLVFQS,0.0679
MGESLFKGPRDYNPISSSICHLTNESDGHTTSLYGIGFGPFIITNKHLFRRNNGTLVVQSLHGVFKVKDTTTLQQHLVDGRDMIIIRMPYDFPPFPQKLKFREPQREERICLVTTNFQTKSMSSMVSDTSCTFPSGDGIFWKHWIQTKDGQCGSPLVSTRDGFIVGIHSASNFTNTNNYFTSVPKNFMELLTNQEAQQWVSGWRLNADSVLWGGHKVFMVKPEEPFQPVKEATQL [K90Y],area with substrate ENLAFQS,0.0724
same,area with substrate ENLDFQS,0.0634
same,area with substrate ENLFFQS,0.154
same,area with substrate ENLKFQS,0.0957
same,area with substrate ENLLFQS,0.069
same,area with substrate ENLNFQS,0.0635
same,area with substrate ENLSFQS,0.0588
MGESLFKGPRDYNPISSSICHLTNESDGHTTSLYGIGFGPFIITNKHLFRRNNGTLVVQSLHGVFKVKDTTTLQQHLVDGRDMIIIRMPKDFHPFPQKLKFREPQREERICLVTTNFQTKSMSSMVSDTSCTFPSGDGIFWKHWIQTKDGQCGSPLVSTRDGFIVGIHSASNFTNTNNYFTSVPKNFMELLTNQEAQQWVSGWRLNADSVLWGGHKVFMVKPEEPFQPVKEATQL [P93H],area with substrate ENLAFQS,0.0505
same,area with substrate ENLDFQS,0.061
same,area with substrate ENLHFQS,0.0668
same,area with substrate ENLKFQS,0.0893
same,area with substrate ENLLFQS,0.0729
same,area with substrate ENLPFQS,0.0558
same,area with substrate ENLRFQS,0.0748
same,area with substrate ENLWFQS,0.0446
MGESLFKGPRDYNPISSSICHLTNESDGHTTSLYGIGFGPFIITNKHLFRRNNGTLVVQSLHGVFKVKDTTTLQQHLVDGRDMIIIRMPKDFYPFPQKLKFREPQREERICLVTTNFQTKSMSSMVSDTSCTFPSGDGIFWKHWIQTKDGQCGSPLVSTRDGFIVGIHSASNFTNTNNYFTSVPKNFMELLTNQEAQQWVSGWRLNADSVLWGGHKVFMVKPEEPFQPVKEATQL [P93Y],area with substrate ENLAFQS,0.0715
same,area with substrate ENLCFQS,0.0535
same,area with substrate ENLFFQS,0.102
same,area with substrate ENLKFQS,0.0436
same,area with substrate ENLMFQS,0.0654
same,area with substrate ENLPFQS,0.0637
same,area with substrate ENLQFQS,0.0249
same,area with substrate ENLRFQS,0.0803
MGESLFKGPRDYNPISSSICHLTNESDGHTTSLYGIGFGPFIITNKHLFRRNNGTLVVQSLHGVFKVKDTTTLQQHLVDGRDMIIIRMPKDFPMFPQKLKFREPQREERICLVTTNFQTKSMSSMVSDTSCTFPSGDGIFWKHWIQTKDGQCGSPLVSTRDGFIVGIHSASNFTNTNNYFTSVPKNFMELLTNQEAQQWVSGWRLNADSVLWGGHKVFMVKPEEPFQPVKEATQL [P94M],area with substrate ENLAFQS,0.0689
same,area with substrate ENLCFQS,0.0519
same,area with substrate ENLDFQS,0.0461
same,area with substrate ENLEFQS,0.0943
same,area with substrate ENLFFQS,0.128
same,area with substrate ENLGFQS,0.0626
same,area with substrate ENLIFQS,0.145
same,area with substrate ENLMFQS,0.0419
same,area with substrate ENLNFQS,0.0616
same,area with substrate ENLPFQS,0.0717
same,area with substrate ENLQFQS,0.0823
same,area with substrate ENLRFQS,0.0684
